According to a collection of fitness landscapes (doi:10.1016/j.celrep.2020.107928):
The full ranking holds about 81,000 sequences; the median of “one-hybrid fitness for binding parS DNA” is about -0.17, and the highest 2% start at about 0.51. The list shows a part of the results.

B1: Caulobacter ParB omega fusion; a variant is named by its letters at X, in order, B8GW30 (parent)
chain: MESVVVGEPGMSEGRRGLGRGLSALLGEVDAAPAQAPGEQLGGSREAPIEILQRNPDQPRRTFREEDLEDLSNSIREKGVLQPILVRPSPDTAGEYQIVAGERAWRAAQRAGLKTVPIMVRELDDLAVLEIGIIENVQRADLNVLEEALSYKVLMEKFERTQENIAQTIGKSXSHVANXMRLLXLPDEVQSYLVSGELTAXHARAIAAAADPVALAKQIIEGGLSVRETEALARKAPNLSAGKSKGGRPPRVKDTDTQALESDLSSVLGLDVSIDHRGSTGTLTITYATLEQLDDLCNRLTRGI

Variants of: B1
Assay: one-hybrid fitness for binding parS DNA (scaled: cognate 1, non-cognate 0); higher = stronger binding
Conditions: with parS DNA site
Outline: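 On M9-minus-histidine containing 0.1 mM IPTG and 5 mM 3-AT, E. coli USO cells with a HIS3 reporter, site 19 bp from the promoter, grew 48 hours at 37°C to select Caulobacter ParB libraries randomised at four specificity codons. Plasmids from before and after were Illumina-sequenced, with three replicate libraries pooled and variants under 10 reads left out. Fitness is the log change in variant-to-wild-type read ratio, rescaled against cognate and non-cognate.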

one-hybrid fitness for binding parS DNA, 0.418:
RQWY

one-hybrid fitness for binding parS DNA, 0.219:
RNKH

one-hybrid fitness for binding parS DNA, 0.512:
RHEA

one-hybrid fitness for binding parS DNA, 0.846:
RSYT

one-hybrid fitness for binding parS DNA, 0.399:
RNSY

one-hybrid fitness for binding parS DNA, 0.337:
RAEN

one-hybrid fitness for binding parS DNA, 0.252:
EEYS

one-hybrid fitness for binding parS DNA, 0.727:
RYRA

one-hybrid fitness for binding parS DNA, 0.487:
RMSY

one-hybrid fitness for binding parS DNA, 0.235:
RMAW

one-hybrid fitness for binding parS DNA, 0.515:
RSDA

one-hybrid fitness for binding parS DNA, 0.267:
RKYM

one-hybrid fitness for binding parS DNA, 0.425:
RVHN

one-hybrid fitness for binding parS DNA, 1.01:
RCAS

one-hybrid fitness for binding parS DNA, ≤ 0.2:
HQAS
QKIW
YSMG
KRYY
PKVV
VKWS
KVRV
WFED
KLLT
SIMW
QEGR
AGCG
QFKK
RENY
DGPV
EAKD
PRMR
ANSP
HPDR
EIPG
STLS
YKFR
TPLI
MRDI
PYHD
RIKE
NECS
FYTC
AKEC
PWNC
WRSE
FLED
AICR
QHMR
YQPF
CCEE
WANT
WHMC
SFDG
INMT
NHPG
AANA
ALER
QTRQ
KMLT
PKTC
AKIT
AEAW
DSNS
KADD
ILCR
WHIR
GVPW
IGWR
RYMQ
TIWL
LMIS
CVSC
QWRM
MHYV
TKKH
STVR
YHHS
HMTS
REAW
YIFD
IYST
YVPS
DHVT
EGTW
LMQL
PHRH
EVDL
STYC
NIKH
LVEG
CVYS
ERSN
LGLK
PQVS
QSSW
CPMG
VSTG
QAMH
AYGT
TMYG
APND
GRNY
LMKC
SMIV
CNHG
ARCD
TALP
QTVP
PAPT
GAKS
QLYR
LYSH
SMNT
KTQC
CGAA
APGN
YNGV
KQVS
KFWG
CTGL
ICRG
VRTS
QEAR
WHSN
GGMM
QVMN
ATTK
VEWC
WIMN
ATAT
TFPG
GSHI
SDCS
NHTM
PLIA
PNFC
SPNE
TSAG
HMNR
KDMC
KEPS
LEAL
CDAG
NHTI
YCYV
TCER
RTQP
CGQG
LPPI
TSFN
WRPT
YKTL
VFHS
GWVS
LMSV
HWNT
PVYS
LVAV
QMSH
SNHH
GIQC
NHNP
EAKL
VSQD
KRPN
GLAR
PIEM
TRDN
KKIL
HHRC
TVAG
IICG
SHYM
SKKH
NNLR
LGIT
IYPV
FCYS
TSEY
AFDV
YHLN
RAWD
RGWW
CQPI
DMQP
FSWL
WRMN
LEWS
KLKI
HNHG
WCQS
ATNR
QWGI
QPTP
VCRN
KGER
SRLD
NWHS
WTGE
RCFD
LENE
RDRF
DGAR
AVRR
GHNR
PIVW
KDPP
DIEW
PCTV
TYRD
SLYC
GHEF
QIMG
SLLW
ILAV
VFVC
TTVV
LIQR
NILC
LDHW
RASD
STNT
HIPD
AMRC
CERS
EMKC
RVDF
HSSQ
QSFG
GWPS
RELE
DTFA
FWAG
FAHG
DHIC
QSNP
LQDG
CAPG
LCDI
GSRF
TCPF
GLAV
CRQR
YQAL
PMRY
SRCN
HMCA
PTNS
MTLL
DICV
NCIC
SMNN
LTTQ
TRTI
KGDM
TRDA
RVKQ
APVH
QLYT
PNRL
KTWS
HGPC
AYMF
VENS
HNPW
PLMF
PPDY
MIPT
QHGD
HQSF
CSCT
AFSH
RIDD
KLCM
TTSY
HELS
PRKI
TATG
GLDA
VERV
FFLS
ALTT
LGSV
LMTC
EYWR
PCHC
YKSS
DYIK
LNGC
GGGL
MLFS
WKCG
LKYE
VSGT
DAKR
DTVV
RPIW
AHGR
IKCG
DSGV
CAAC
DLKY
EPKW
HFSY
IIYR

one-hybrid fitness for binding parS DNA, 0.369:
RCIM
